In PubChem BioAssay AID1347165 (National Center for Advancing Translational Sciences (NCATS), 2019):
Where “and” joins values, the source holds several entries; their conditions need not be identical. Identical values can stand only once. Out of some 220,000 compounds screened, about 5,700 (2.6%) were called active. Inconclusive means that the source gave no clear call. Such entries were picked first, then a sample of the others. Calls come from the whole dose curve; as a rule, active = well fitted inhibition curve with a large enough effect; inconclusive = small, poorly fitted or top-dose-only effect; inactive = no such curve, though single readings can be large or run the other way. A potency beside an inconclusive call is a rough fit, not a confirmed value.

The compounds below were run against Lysine-specific demethylase 5B (Homo sapiens) (UniProt Q9UGL1) (assay: Primary screen for KDM5B Histone Demethylases FDH-coupled qHTS). Conditions: FDH-coupled NADH fluorescence (FDH is formaldehyde dehydrogenase); activity change, negative = inhibition: at 57.7 µM (top of the series) unless noted.
Sequence of UniProt Q9UGL1 (Q9UGL1 whole entry, looked up): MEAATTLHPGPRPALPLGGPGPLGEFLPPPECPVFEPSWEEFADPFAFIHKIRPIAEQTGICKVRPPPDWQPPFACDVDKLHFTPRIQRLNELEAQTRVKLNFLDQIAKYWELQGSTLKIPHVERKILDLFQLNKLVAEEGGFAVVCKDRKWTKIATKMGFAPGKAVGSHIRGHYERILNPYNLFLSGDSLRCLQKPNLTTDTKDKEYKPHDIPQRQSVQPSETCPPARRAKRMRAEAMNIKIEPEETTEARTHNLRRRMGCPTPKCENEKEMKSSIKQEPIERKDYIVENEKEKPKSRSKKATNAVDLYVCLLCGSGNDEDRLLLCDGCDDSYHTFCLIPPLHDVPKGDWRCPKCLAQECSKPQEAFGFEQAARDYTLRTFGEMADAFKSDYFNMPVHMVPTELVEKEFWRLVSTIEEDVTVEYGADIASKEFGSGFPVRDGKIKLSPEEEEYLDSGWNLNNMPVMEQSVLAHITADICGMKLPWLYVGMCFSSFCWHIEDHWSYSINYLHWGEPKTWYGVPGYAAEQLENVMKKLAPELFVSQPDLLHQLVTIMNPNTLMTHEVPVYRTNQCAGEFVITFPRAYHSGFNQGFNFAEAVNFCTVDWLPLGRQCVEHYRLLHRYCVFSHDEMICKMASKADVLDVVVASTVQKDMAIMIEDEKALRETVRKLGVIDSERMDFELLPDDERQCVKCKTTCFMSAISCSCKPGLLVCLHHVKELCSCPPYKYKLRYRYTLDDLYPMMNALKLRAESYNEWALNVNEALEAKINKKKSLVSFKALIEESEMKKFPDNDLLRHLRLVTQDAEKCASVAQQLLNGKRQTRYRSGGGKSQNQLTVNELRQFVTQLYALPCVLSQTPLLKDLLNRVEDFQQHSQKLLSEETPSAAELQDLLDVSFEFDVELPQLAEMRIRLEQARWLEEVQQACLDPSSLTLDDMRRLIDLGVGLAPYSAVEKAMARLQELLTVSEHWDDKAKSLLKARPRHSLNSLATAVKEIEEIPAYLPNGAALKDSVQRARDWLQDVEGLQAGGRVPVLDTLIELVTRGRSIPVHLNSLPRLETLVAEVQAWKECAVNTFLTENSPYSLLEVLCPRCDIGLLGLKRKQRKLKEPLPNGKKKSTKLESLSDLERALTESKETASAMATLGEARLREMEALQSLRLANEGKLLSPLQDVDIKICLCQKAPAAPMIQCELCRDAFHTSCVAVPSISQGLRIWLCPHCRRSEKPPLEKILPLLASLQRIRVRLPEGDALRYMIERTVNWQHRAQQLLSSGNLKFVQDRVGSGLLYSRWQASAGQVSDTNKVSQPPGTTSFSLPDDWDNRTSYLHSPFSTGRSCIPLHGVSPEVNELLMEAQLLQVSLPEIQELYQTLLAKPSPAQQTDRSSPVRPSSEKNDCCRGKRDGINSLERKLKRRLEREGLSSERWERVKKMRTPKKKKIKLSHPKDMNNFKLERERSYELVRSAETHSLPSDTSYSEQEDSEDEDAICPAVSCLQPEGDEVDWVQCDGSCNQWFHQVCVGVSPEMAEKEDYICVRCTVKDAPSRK
Procedure, shortened: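 Coupled FDH/NAD⁺ fluorescence readout. KDM5BΔAP 200 nM final; compound titration, 10 min RT preincubation; substrate mix 12.5 µM H3K4me3, 25 µM 2-OG, 50 µM Fe(II), 100 µM ascorbate, 0.25 mM NAD⁺, 0.25 U/mL FDH; ΔRFU over 30 min.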
Note: nearly all actives have a fitted effect of over 70% in size.
Potency is the fitted concentration of half-maximal effect; tags give direction and shape of the fitted curve.
Throughout, for activity change, negative = inhibition: 0% is about no effect.

Row | Structure (SMILES) | activity change, negative = inhibition | Potency
1 | Cc1c(C(=O)NCc2cncn2CC(C)C)oc2c(F)cccc12 | inactive: 52.7% | 
2 | COc1cc(OC)cc(C(=O)N2CCC(c3n[nH]c(=O)n3-c3ccccc3)CC2)c1 | inactive: 39.3% | 
3 | CC(C)(C)c1ccc(C(=O)NCC(c2cccs2)S(=O)(=O)c2ccc(F)cc2)cc1 (stereo not given) |  | inconclusive: 3.98 µM [inhibitor, partial curve, poor fit]
4 | Nc1nc(COC(=O)c2cccc(Cl)c2Cl)nc2ccccc12 | inactive: -13.5% | 
5 | CC(=O)c1cccc(S(=O)(=O)N2CCN(c3ccccc3F)CC2)c1 |  | inconclusive: 39.8 µM [inhibitor, single point]
6 | Cc1ccnc(NC(=O)C2CC(=O)N(c3n[nH]c4cccc(F)c34)C2)c1 (stereo not given) | inactive: -29.3% | 
7 | COC[C@@H]1CN(Cc2ccc(F)cc2F)C[C@H]1C(=O)NC1CC1 | inactive: 13.9% | 
8 | CC(=O)NC1(C)CCN(Cc2cccc(-c3ccc(C(=O)c4ccccc4)cc3)c2)C1 (stereo not given) |  | inconclusive: 31.6 µM [inhibitor, partial curve, poor fit]
9 | COC(=O)c1ccc(COc2ccc(/C=N/Nc3cccc(C(=O)O)c3)cc2)cc1 |  | inconclusive: 39.8 µM [inhibitor, single point]
10 | CCOC(=O)C1=NN(c2ccccc2)C2C(=O)N(c3ccccc3OC)C(=O)C12 (stereo not given) |  | inconclusive: 31.6 µM [inhibitor, single point]
11 | COc1ccc(-c2noc(N3CCN(c4cccc(Cl)c4)CC3)n2)cc1OC | inconclusive: -38.4% [inhibitor] [at 11.5 µM] | 
12 | CCSc1oc(-c2ccc(F)cc2)nc1S(=O)(=O)c1ccc(C)cc1 |  | inconclusive: 35.5 µM [inhibitor, single point] and inconclusive: 39.8 µM [inhibitor, single point]
13 | Cc1cc(OCC(=O)Nc2cc(-c3nc4ccccc4[nH]3)ccc2C)ccc1Cl |  | inconclusive: 25.1 µM [inhibitor, partial curve, poor fit]
14 | COC(=O)[C@@H]1Cc2c([nH]c3ccccc23)[C@H]2C[C@@H](NCCc3cnc[nH]3)C[C@@H](c3ccccc3F)N21 |  | inconclusive: 28.2 µM [inhibitor, partial curve, poor fit]
15 | COc1ccc(Oc2nc3c(c(=O)n(C)c(=O)n3C)n2Cc2ccccc2Cl)cc1 | inconclusive: -36.7% [inhibitor] | 
16 | O[C@@H]1CC(CNCc2nccs2)(COc2cccnc2)C[C@@H]1O (stereo not given in full) |  | inconclusive: 50.1 µM [inhibitor, partial curve, poor fit]
17 | Fc1cc(F)cc(Cc2nc3nccc(-c4ccco4)n3n2)c1 |  | active: 25.1 µM
18 | O=C(NC1CCCN(c2cc(-c3ccc(F)cc3)[nH]n2)C1)c1cc2ccccc2[nH]1 (stereo not given) |  | inconclusive: 12.6 µM [inhibitor, partial curve, poor fit]
19 | COc1ccc(NC(=O)CCN2CCN(CCO)CC2)c(OC)c1 |  | inconclusive: 28.2 µM [inhibitor, partial curve, poor fit]
20 | COc1ccc(C(=O)N[C@@H]2CCC[C@@H]2C(=O)N(C)Cc2ccccc2)cc1 | inactive: 17.6% | 
21 | Cc1c(-c2ccccc2)c(=O)oc2cc(OS(C)(=O)=O)ccc12 |  | inconclusive: 35.5 µM [inhibitor, single point]
22 | O=C(Nc1ccc2nc(SCc3ccccc3)sc2c1)c1cccc(F)c1 |  | inconclusive: 31.6 µM [inhibitor, partial curve, poor fit]

Row | Structure (SMILES) | activity change, negative = inhibition | Potency
23 | CC(C)NC(=O)N1CCC2(CC1)CN(C(=O)c1ccnc(N)c1)Cc1ccccc1O2 |  | active: 79.4 µM
24 | CCOCCCNC(=O)CCSc1ccccc1 | inactive: 18% | 
25 | O=C(CCc1ccccc1)NNc1ccc(F)cc1 |  | inconclusive: 39.8 µM [inhibitor, single point]
26 | CCCn1cnc2cc(NCc3ccccn3)ccc21 |  | inconclusive: 14.1 µM [inhibitor, partial curve, poor fit]
27 | Cc1ccc(C(=O)/C=C/c2cn(CC(O)CN3CCc4ccccc43)c3ccccc23)cc1 (stereo not given) |  | inconclusive: 15.8 µM [inhibitor, partial curve, poor fit]
28 | c1ccc(CSc2ccc(Sc3ccc(SCc4ccccc4)cc3)cc2)cc1 | inactive: 1.26% | 
29 | c1ccc(C(CNc2nccc(-c3ccncc3)n2)N2CCOCC2)nc1 (stereo not given) |  | inconclusive: 20 µM [inhibitor, partial curve]
30 | CN(C)Cc1nnc(C2CCN(C(=O)c3nc(N)nc4c3CCCC4)CC2)n1C |  | active: 25.1 µM
31 | CCC1Oc2ccc(NC(=O)COC)cc2CN(Cc2cc(F)cc(F)c2)C1=O (stereo not given) | inactive: 1.09% | 
32 | CC(=O)Nc1ccc(CNC2(Cc3cc(CN4CCOCC4)on3)COC2)cc1 |  | inconclusive: 31.6 µM [inhibitor, single point]
33 | COc1ccc(OC)c(CNC(=O)c2cc3cc4ccc(OC)cc4nc3o2)c1 |  | inconclusive: 1.26 µM [inhibitor, partial curve, poor fit]
34 | O=C(C1COc2ccccc2O1)N1CCN(c2ccc(C(F)(F)F)cn2)CC1 (stereo not given) |  | inconclusive: 22.4 µM [inhibitor, single point]
35 | CC(NC(=O)C1CC1)C1CC2CCC1C2 (stereo not given) | inactive: 20.1% | 
36 | CCCCn1c(N)c(N(CC)C(=O)c2ccc(-c3ccc(Cl)cc3)o2)c(=O)[nH]c1=O |  | inconclusive: 28.2 µM [inhibitor, partial curve, poor fit]
37 | Cc1c(-c2ccc(Cl)cc2)[n+](=O)c(-c2ccccc2)cn1[O-] | inactive: 78.3% | 
38 | Cc1ccc(NC(=O)c2ncoc2-c2ccc(C)s2)c(C)c1 |  | inconclusive: 8.91 µM [inhibitor, partial curve, poor fit]
39 | Cc1nc2nc(SCc3c(F)cccc3Cl)nn2c(C)c1Cc1ccccc1 |  | inconclusive: 10 µM [inhibitor, partial curve, poor fit]
40 | Cc1ccc(F)cc1-n1nc(-c2c(C)nc3scc(CC(=O)N4CCOCC4)n3c2=O)cc1C |  | inconclusive: 28.2 µM [inhibitor, partial curve, poor fit]
41 | Cc1ccc(CN(C(=O)COc2ccc(Cl)c(C)c2)c2ccccn2)o1 |  | inconclusive: 28.2 µM [inhibitor, partial curve, poor fit]
42 | C=C(C)Cn1c(SCCCCCC)nc2c1c(=O)[nH]c(=O)n2C | inactive: 6.21% | 
43 | CCCCCCCC(=O)Nc1c(C)cccc1CC | inactive: 32.9% | 
44 | Cc1ccc(C(=O)Nc2cc(NC(=O)c3ccc(C)c(C)c3)cc(C(=O)O)c2)cc1C | inactive: 5.86% | 

Row | Structure (SMILES) | activity change, negative = inhibition | Potency
45 | O=C(NCc1ccccc1Cl)c1cc2c(s1)-c1ccccc1SC2 |  | inconclusive: 35.5 µM [inhibitor, partial curve, poor fit]
46 | C[C@H](N)C(=O)N1CCC(n2nccc2NC(=O)Nc2ccccc2Cl)CC1 |  | inconclusive: 15.8 µM [inhibitor, partial curve]
47 | COc1cccc(NC(=O)CSc2nc3c([nH]c4ccccc43)c(=O)n2-c2ccccc2)c1 |  | inconclusive: 39.8 µM [inhibitor, single point]
48 | Cc1ccc(NC(=O)CSc2nnc(C)n3c2cc2sccc23)c(C)c1 |  | inconclusive: 11.2 µM [inhibitor, partial curve, poor fit]
49 | COc1ccc(NC(=O)O[C@@H]2CO[C@H]3[C@@H]2OC[C@@H]3Nc2nccc(-c3cccc(F)c3)n2)cc1 |  | inconclusive: 35.5 µM [inhibitor, single point]
50 | Cc1ccccc1-c1nnc(CN2CCN(c3cccc(C)c3C)CC2)o1 |  | inconclusive: 39.8 µM [inhibitor, single point]
51 | Cc1ccc2c(Cl)cc(Cl)c(OCC(=O)NC(C)C(C)C)c2n1 (stereo not given) | inactive: 15.6% | 
52 | CC(=O)NC(C)c1ccc([N+](=O)[O-])cc1 (stereo not given) | inactive: 18.7% | 
53 | O=C(NCc1ccccc1F)c1ccc2c(c1)CN(Cc1ccc(O)c(F)c1)CCO2 | inactive: -0.469% | 
54 | COC(=O)c1ccc([C@H]2Nc3ccc(S(=O)(=O)Nc4ccc(C)cc4)cc3[C@H]3C=CC[C@H]32)cc1 |  | inconclusive: 20 µM [inhibitor, single point]
55 | CC(=O)N1CCc2cc(C(=O)Nc3nc4ccccc4[nH]3)ccc21 |  | inconclusive: 39.8 µM [inhibitor, single point]
56 | CC(=O)N1CCC2(CC1)CCN(Cc1cccs1)c1ccccc1O2 |  | inconclusive: 12.6 µM [inhibitor, partial curve]
57 | Cc1ccc(CN(Cc2ccco2)C(=O)COc2ccc(Cl)cc2Cl)cc1 |  | inconclusive: 3.55 µM [inhibitor, partial curve, poor fit]
58 | CN(Cc1cccc(Cl)c1)C(=O)C1CCN(c2ccc(C(F)(F)F)cn2)CC1 |  | inconclusive: 39.8 µM [inhibitor, single point]
59 | COc1ccc2[nH]c(C(=O)NCc3ccc(C)o3)cc2c1 |  | inconclusive: 25.1 µM [inhibitor, partial curve, poor fit]
60 | COc1ccc(Br)c(C(=O)OCc2cc(=O)oc3cc(C)ccc23)c1 |  | inconclusive: 25.1 µM [inhibitor, partial curve, poor fit]
61 | O=C(NCc1ccco1)c1c[nH]c2ccc(S(=O)(=O)Nc3ccc(F)cc3F)cc2c1=O |  | inconclusive: 12.6 µM [inhibitor, partial curve, poor fit]
62 | COc1ccc(CN2CCC(N3CCOC3=O)CC2)cc1 | inactive: 3.11% [at 149 µM] | 
63 | COCCCN(CCC(=O)NCCC(C)C)C(=O)c1cc(C)oc1C |  | inconclusive: 22.4 µM [inhibitor, single point]
64 | Nc1c(C(=O)Nc2c(Cl)cccc2Cl)sc2nc(-c3ccncc3)ccc12 | inactive: 2.27% | 
65 | CN(C)c1ccc(C(CNC(=O)c2ccccc2F)N2CCc3ccccc32)cc1 (stereo not given) |  | inconclusive: 25.1 µM [inhibitor, partial curve, poor fit]
